# Reference: article PMC4336329 (PLoS ONE, 2015)
# Out of some 310,000 compounds screened, about 14,000 (4.5%) showed an effect of 50% or more. The effect is printed as a negative number. The list shows a part of the results.
# Target: human ether-à-go-go-related gene (hERG) potassium channel (human, UniProt Q12809)
# Assay: primary screen, population patch clamp on CHO cells stably expressing hERG
# 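Note: peak tail current of the secondary pulse compared with the same well before compound.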
# Chain of human ether-à-go-go-related gene (hERG) potassium channel (Q12809 whole entry, looked up): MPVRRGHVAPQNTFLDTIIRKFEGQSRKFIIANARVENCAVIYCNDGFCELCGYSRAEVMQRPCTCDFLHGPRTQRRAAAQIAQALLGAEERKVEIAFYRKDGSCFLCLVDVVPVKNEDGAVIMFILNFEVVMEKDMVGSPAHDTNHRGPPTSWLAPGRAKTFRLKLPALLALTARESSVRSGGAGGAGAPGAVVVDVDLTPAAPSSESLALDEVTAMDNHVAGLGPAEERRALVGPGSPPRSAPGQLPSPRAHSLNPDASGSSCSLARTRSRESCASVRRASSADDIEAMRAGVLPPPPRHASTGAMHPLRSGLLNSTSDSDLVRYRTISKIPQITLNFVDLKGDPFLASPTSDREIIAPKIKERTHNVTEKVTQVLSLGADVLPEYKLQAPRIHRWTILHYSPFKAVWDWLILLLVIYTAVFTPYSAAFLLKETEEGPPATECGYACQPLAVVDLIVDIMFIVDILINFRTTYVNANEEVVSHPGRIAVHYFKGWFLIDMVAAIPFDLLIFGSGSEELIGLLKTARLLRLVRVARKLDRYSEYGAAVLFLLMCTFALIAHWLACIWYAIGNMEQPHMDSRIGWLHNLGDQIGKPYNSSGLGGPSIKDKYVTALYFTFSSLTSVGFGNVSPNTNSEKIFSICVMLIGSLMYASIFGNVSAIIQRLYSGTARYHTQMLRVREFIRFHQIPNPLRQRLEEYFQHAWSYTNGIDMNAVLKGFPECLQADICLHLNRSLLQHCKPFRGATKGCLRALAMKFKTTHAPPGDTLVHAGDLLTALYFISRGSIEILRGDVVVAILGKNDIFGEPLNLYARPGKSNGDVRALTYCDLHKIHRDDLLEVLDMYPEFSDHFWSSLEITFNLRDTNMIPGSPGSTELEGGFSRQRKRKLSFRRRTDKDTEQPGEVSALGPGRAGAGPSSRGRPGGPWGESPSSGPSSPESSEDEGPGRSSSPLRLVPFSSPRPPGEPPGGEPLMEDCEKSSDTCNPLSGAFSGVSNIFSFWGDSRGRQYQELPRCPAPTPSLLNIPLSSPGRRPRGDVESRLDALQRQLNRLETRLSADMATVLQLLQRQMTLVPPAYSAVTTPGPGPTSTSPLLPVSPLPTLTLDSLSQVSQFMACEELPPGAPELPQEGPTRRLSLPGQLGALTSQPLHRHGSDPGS
row,Compound,"hERG current change (%, negative = inhibition) at 10uM [%]"
1,COc1ccc(CCNCc2ccc(OC)c(OC)c2OC)cc1,-37.6
2,COC(=O)COc1cccc(NS(=O)(=O)c2ccc(NC(C)=O)cc2)c1,10.8
3,COc1ccc(C2CC(c3ccccc3)=NN2c2ccc(S(N)(=O)=O)cc2)cc1 (centres unmarked),12.6
4,Cc1nn(C)cc1CNCc1ccc(OCC(O)CN(C)Cc2ccccc2)cc1 (centres unmarked),5.56
5,C(=C\n1nnc2ccccc21)/c1ccccn1,-1.1
6,COc1ccccc1N1CCN(S(=O)(=O)CCNC(=O)C2CCCCC2)CC1,-20.7
7,COc1cccc(CN2CC(C(=O)NCCC3=CCCCC3)CCC2=O)c1 (centres unmarked),-18.8
8,COc1cc(/C=C/C(=O)c2ccc([N+](=O)[O-])o2)ccc1O,5.03
9,Cc1ccsc1C(=O)Nc1ccc(F)c([N+](=O)[O-])c1,5.57
10,N=C1S/C(=C\c2ccccc2)C(=O)N1c1ccc(F)cc1,10.1
11,Cl.NCCc1ccn[nH]1,14.3
12,O=c1c2ccccc2nc(CSc2ncnc3nc[nH]c23)n1-c1ccccc1,19.4
13,O=C(O)CCC(=O)NNC(=O)CCC(=O)Nc1ccccc1,26
14,O=C(CCCC(=O)NC1CCCCC1)Nc1ccc([N+](=O)[O-])cc1,-36.9
15,CCCCOC(=O)Nc1nnc(SCCOc2ccc(C)cc2)s1,2.05
16,CC1CC(C)CN(C(=O)COC(=O)c2cc(S(=O)(=O)N3CCOCC3)ccc2F)C1 (centres unmarked),-0.819
17,CC(C)Oc1cccc(C(=O)C2CCCN(C(=O)c3ccccn3)C2)c1 (centres unmarked),9.46
18,CC1(c2ccc3ccccc3c2)NC(=O)N(CC(=O)N2CCCC(C(F)(F)F)C2)C1=O (centres unmarked),-5.84
19,O=C(Cn1cnc2ccccc2c1=O)Nc1ccc(-c2nnc3n2CCCCC3)cc1,-4.47

row,Compound,"hERG current change (%, negative = inhibition) at 10uM [%]"
1,CCc1nc2c(s1)CCc1onc(-c3ccc(Cl)cc3)c1-2,8.68
2,COc1ccc(C(O)Cn2ccsc2=NC(C)=O)cc1 (centres unmarked),23.5
3,NC(=S)N/N=C/c1ccc(Br)o1,-1.41
4,COc1ccc(N2CCN(C(=O)CCC(=O)c3cc(C)sc3C)CC2)cc1,-24.8
5,CCCCNC(=O)[C@@H]1CCCN1S(=O)(=O)c1cccc2cccnc12,0.308
6,Cc1nc2c(C)cccc2c2c1CCN2c1ccccc1F,-62.4
7,Cc1cc2c(c(=O)n1CCCn1ccnc1)C(c1ccco1)C(C#N)=C(N)O2 (centres unmarked),-3.23
8,COc1ccc(C2=NOC(Cn3nc(C(=O)NCC4CC4)cc3-c3ccccc3)C2)cc1 (centres unmarked),-65
9,Cc1ccc(N2C(=O)CN(Cc3cccs3)C2=S)cc1C,-3.2
10,O=C1Nc2c(Br)cc(Br)cc2C1(O)N1CCOCC1 (centres unmarked),2.85
11,CNCCCOc1ccc(C)cc1OC.O=C(O)C(=O)O,7.85
12,Cc1c(C(=O)O)oc2ccc(S(=O)(=O)N3CCCC3)cc12,32
13,C=C1C(=O)C=C2CN(C(=O)c3ccccc3)[C@@](Cc3ccc(F)cc3)(C(=O)OC)[C@@H]12,-3.22
14,Cc1csc(NC(=O)CCC(=O)c2cccs2)n1,-13.1
15,Cc1ccc(N2C(=O)N3[C@H]4c5ccccc5OC[C@@H]4[C@@H](c4ccccc4)[C@@]3(C)C2=O)cc1,12.8
16,Cc1cccc(C(=O)NCCNC(=O)c2cnccn2)c1,12.8
17,Cc1ccc(NC(=O)COc2coc(CN3CCc4ccccc4C3)cc2=O)cc1Cl,3.84
18,O=C(Cc1n[nH]c(=O)c2ccccc12)Nc1cccc(S(=O)(=O)N2CCCC2)c1,-5.36
19,O=S(=O)(Nc1cccc(CCc2ccccn2)c1)c1cc(Cl)ccc1Cl,-6.71

row,Compound,"hERG current change (%, negative = inhibition) at 10uM [%]"
1,CCC(C)NC(=O)c1ccccc1NC(=O)C1COc2ccccc2O1 (centres unmarked),6.82
2,CC(C(=O)Nc1ccc(C#N)cc1)N(C)Cc1cccs1 (centres unmarked),-56.7
3,O=C(c1ccc(-n2cccn2)cc1)N1CCN(c2ncccc2C(F)(F)F)CC1,-60.4
4,O=C(OCc1cc2ccccc2[nH]c1=O)C1CCCCC1,4.18
5,COc1ccc(C2(C(=O)NCc3ccccc3Cl)CCOCC2)cc1OC,-8.24
6,COc1ccc(OC)c(S(=O)(=O)N2CCC(C(=O)NCCc3ccc(OC)c(OC)c3)CC2)c1,-4.02
7,COC(=O)C1=C(C(=O)OC)[C@@H]2N(C)c3ccc(OC)cc3[C@@]23C[C@@H](C(=O)OC)N(C(=O)CC(C)C)C3=N1,-14.9
8,CCOC(=O)C1=C(c2ccccc2)NC(=S)NC1c1ccc(Cl)cc1 (centres unmarked),0.162
9,CCN(CC)S(=O)(=O)c1cccc(NC(=O)CSc2nnc(N)s2)c1,14.9
10,COc1cc(CN2CCNC(=O)C2CC(=O)N2CCCN(C(C)=O)CC2)cc(OC)c1 (centres unmarked),9.18
11,CCOC(=O)/C=C1\CN(Cc2cc(OC)c(OC)c(OC)c2)S(=O)(=O)c2ccc(C(F)(F)F)cc21,-11.3
12,C=CCNC(=O)C1CCN(c2c([N+](=O)[O-])cc(C(F)(F)F)cc2[N+](=O)[O-])CC1,10
13,COC(=O)c1ccc(N2CCN(CCNC(=O)Nc3ccc(OC)cc3)CC2)cc1,-0.192
14,Cc1ccc(SC(C)C(=O)Nc2ccc(S(=O)(=O)N3CCOCC3)cc2)cc1 (centres unmarked),-31.9
15,O=S(=O)(c1ccc(F)cc1)N1CCCC1c1cccnc1 (centres unmarked),3
16,COc1ccsc1C(=O)Nc1ccc(F)cc1F,2.66
17,CCC(=O)NC(=S)Nc1ccc(NC(=O)c2cccnc2)cc1,5.3
18,CCC1CCC(C(=O)NC(C(=O)Nc2ccc3c(c2)OCCO3)C(C)C)CC1 (centres unmarked),2.88
